Counter-ions that a name gives are not always drawn. ± gives the standard deviation of the averaged measurements. This is one part of the list. Single values are uncertain, as repeats are few or missing.
Test system: mouse mesenchymal chondrosarcoma cells (HEY1-NCOA2)
Assay: XTT absorbance relative to DMSO control (cell viability) (fraction of DMSO control); higher = more viable cells / less growth inhibition

Structure (SMILES) | XTT absorbance
c1cc(CN2CCCNCCNCCCNCC2)ccc1CN1CCCNCCNCCCNCC1 [AMD3100 octahydrochloride] | 1.1
CO[C@H]1C[C@@H]2CC[C@@H](C)[C@@](O)(O2)C(=O)C(=O)N2CCCC[C@H]2C(=O)O[C@H]([C@H](C)C[C@@H]2CC[C@@H](OCCO)[C@H](OC)C2)CC(=O)[C@H](C)/C=C(\C)[C@@H](O)[C@@H](OC)C(=O)[C@H](C)C[C@H](C)/C=C/C=C/C=C/1C [everolimus] | 0.799
CN(C)S(=O)(=O)c1ccc2c(c1)/C(=C/c1cc3c([nH]1)CCCC3)C(=O)N2 | 0.976
C=CCNC1=C2C[C@@H](C)C[C@H](OC)[C@H](O)[C@@H](C)/C=C(\C)[C@H](OC(N)=O)[C@@H](OC)/C=C\C=C(/C)C(=O)NC(=CC1=O)C2=O | 0.273
Fc1ccc(Cl)cc1-c1nc(Nc2ccncc2)c2nccnc2n1 | 0.853
COc1cc([C@@H]2c3cc4c(cc3[C@@H](O[C@@H]3O[C@@H]5CO[C@@H](C)O[C@H]5[C@H](O)[C@H]3O)[C@H]3COC(=O)[C@H]23)OCO4)cc(OC)c1O [Etoposide (VP-16)] | 0.57
CC(/C=C/C(=O)NO)=C\[C@@H](C)C(=O)c1ccc(N(C)C)cc1 [Trichostatin A] | 0.244
Oc1nc(-c2ccc(C(F)(F)F)cc2)nc2c1CSCC2 | 0.901
CCOC(=O)C1=C(N)Oc2ccc(Br)cc2C1C(C#N)C(=O)OCC (stereo not drawn) | 1.02
O=C(Nc1ccc([N+](=O)[O-])cc1O)Nc1ccccc1Br | 0.825
C#Cc1cccc(Nc2ncnc3cc(OCCOC)c(OCCOC)cc23)c1 [erlotinib] | 0.92
COC(=O)C[C@H](NC(=O)[C@H](C)NC(=O)[C@@H](NC(=O)OCc1ccccc1)C(C)C)C(=O)CF | 0.892
CNC(=O)c1ccc(N2C(=S)N(c3ccc(C#N)c(C(F)(F)F)c3)C(=O)C2(C)C)cc1F | 0.941
COc1cc2nc(N3CCCN(C)CC3)nc(NC3CCN(Cc4ccccc4)CC3)c2cc1OC | 1.01
O=C(NCc1ccccc1)c1csc(Nc2ccncn2)n1 [Thiazovivin] | 0.903
Cc1cc([N+](=O)[O-])ccc1NS(=O)(=O)c1cc(Cl)ccc1Cl | 1
C[C@H](NC(=O)/C(C#N)=C/c1cccc(Br)n1)c1ccccc1 | 1.01

Structure (SMILES) | XTT absorbance
Nc1ncn([C@H]2C[C@H](O)[C@@H](CO)O2)c(=O)n1 [Decitabine] | 0.898
Nc1nc2c(nc(Sc3ccc(Cl)cc3)n2C2O[C@@H]3CO[P+](O)(S)OC3[C@@H]2O)c(=O)[nH]1 (stereo partly drawn) | 0.932 ± 0.025
CO[C@H]1C[C@@H]2CC[C@@H](C)[C@@](O)(O2)C(=O)C(=O)N2CCCC[C@H]2C(=O)O[C@H]([C@H](C)C[C@@H]2CC[C@@H](O)[C@H](OC)C2)CC(=O)[C@H](C)/C=C(\C)[C@@H](O)[C@@H](OC)C(=O)[C@H](C)C[C@H](C)/C=C/C=C/C=C/1C [Rapamycin] | 0.675
CC(C)n1nc(-c2cc3cc(O)ccc3[nH]2)c2c(N)ncnc21 [Torkinib] | 0.406
CSCC[C@H](NC(=O)c1ccc(NC[C@@H](N)CS)cc1-c1ccccc1)C(=O)O | 0.958
COc1cc2nccc(Oc3ccc(NC(=S)NC(=O)c4ccccc4C)cc3)c2cc1OC [PDGF receptor tyrosine kinase inhibitor V] | 0.759
Cc1cccc(-c2nn3c(c2-c2ccnc4ccc(C(N)=O)cc24)CCC3)n1 | 0.892
Cc1cnc(-c2cnc(NCCNc3ccc(C#N)cn3)nc2-c2ccc(Cl)cc2Cl)[nH]1 | 0.865
CC(=N)NCc1cccc(CN)c1 | 0.863
O=C1CCC(N2C(=O)c3ccccc3C2=O)C(=O)N1 (stereo not drawn) [thalidomide] | 0.976
c1ccc2c(-c3cnn4cc(-c5ccc(N6CCNCC6)cc5)cnc34)ccnc2c1 | 0.743
Cc1c[nH]c(/C=C2\C(=O)Nc3ccccc32)c1CCC(=O)O | 0.926
C[n+]1ccc(-c2c3nc(c(-c4cc[n+](C)cc4)c4ccc([nH]4)c(-c4cc[n+](C)cc4)c4ccc([nH]4)c(-c4cc[n+](C)cc4)c4nc2C=C4)C=C3)cc1 | 1.15
CC(C)C(C(=O)O)N1C(=O)C(=Cc2ccc(Br)cc2)SC1=S (stereo not drawn) | 0.937
COc1cc2c(cc1OC)-c1[nH]nc(Nc3cccc(F)c3)c1C2 [PDGF receptor tyrosine kinase inhibitor IV] | 0.457
COc1cc2c(NC3CCN(C(C)C)CC3)nc(C3CCCCC3)nc2cc1OCCCN1CCCC1 | 0.943

Source: the supplement of paper PMC10322689
